Assay results published in PubChem BioAssay AID624296 (National Center for Advancing Translational Sciences (NCATS), 2012).
Among all 350,000 compounds or so, about 9,900 (2.8%) were called active. Inconclusive results, whose numbers are uncertain, are shown with a selection of clear calls. Calls come from the whole dose curve; as a rule, active = well fitted activation curve with a large enough effect; inconclusive = small, poorly fitted or top-dose-only effect; inactive = no such curve, though single readings can be large or run the other way. Potencies of inconclusive entries are left out as doubtful fits.

Assay: A quantitative high throughput screen for small molecules that induce DNA re-replication in MCF 10a normal breast cells. Note: nearly all actives have a fitted effect of over 50% in size.
Conditions: MCF 10A DNA re-replication, Hoechst nuclear intensity, 48 h; series mostly up to 46.1 µM
Potency is the fitted concentration of half-maximal effect; tags give direction and shape of the fitted curve.

Row | SMILES | Potency
1 | Cc1ccc(-n2c(SCC(=O)Nc3cccc(S(N)(=O)=O)c3)nc3ccccc32)cc1 | active: 16.4 µM
2 | CN1CCc2c(sc(NC(=O)c3ccc(S(=O)(=O)N4CCCCCC4)cc3)c2C(N)=O)C1 | active: 16.4 µM
3 | Cc1ccc2[nH]c(C(=O)N3CCOCC3)cc2c1 | inconclusive [activator, single point]
4 | COc1ccc(/C=N\NC(=O)c2ccccc2[N+](=O)[O-])cc1COc1c(F)c(F)c(F)c(F)c1F | inconclusive [activator, single point]
5 | COc1ccc(/C=N/Nc2nc(C)nc(N)n2)cc1 | inactive
6 | C=CCn1c(N)c(C(=O)OC(C)CC)c2nc3ccccc3nc21 (stereo unspecified) | inactive
7 | CCOc1cc(N2CCOCC2)c(OCC)cc1NC(=O)C(C)Oc1ccccc1 (stereo unspecified) | inactive
8 | O=C(N/N=C\c1ccc(Sc2ccccn2)o1)c1cccc(Br)c1 | inconclusive [activator, partial curve, poor fit]
9 | CCn1cnc2c1c(=O)n(Cc1cccc([N+](=O)[O-])c1)c(=O)n2Cc1ccccc1 | inconclusive [activator, single point]
10 | CCN(CC(=O)Nc1ccc(NC(C)=O)cc1)C(=O)/C=C/c1cn(-c2ccccc2)nc1-c1ccc(F)cc1 | inactive
11 | O=S(=O)(c1ccc(Oc2ccccc2)cc1)N1CCOCC1 | inactive
12 | O=C1c2cccc3c([N+](=O)[O-])ccc(c23)C(=O)N1O | active: 20.6 µM
13 | CCc1ccc(C(=O)COC(=O)[C@@H](NC(N)=O)[C@@H](C)CC)cc1 | inconclusive [activator, single point]
14 | CC(C)N(Cc1ccccc1)C(=O)CN1C(=O)NC2(CCOc3ccccc32)C1=O (stereo unspecified) | inconclusive [activator, partial curve, poor fit]
15 | COC(=O)c1cc(S(=O)(=O)N2CCCCCC2)c[nH]1 | inactive
16 | COc1ccc(CNCCCn2cnc(C(=O)Nc3ccc(C)c(C)c3)n2)cc1 | inactive
17 | Cc1cccc2cc(CN(Cc3cccnc3)C(=O)c3ccccc3F)c(Cl)nc12 | inconclusive [activator, single point]
18 | O=S(=O)(NCCSc1ccc(Cl)cc1)c1ccc(F)cc1 | inconclusive [activator, partial curve, poor fit]
19 | COc1ccc(C2=Nn3c(nnc3-c3ccccc3Cl)SC2)cc1OCC1CC1 | inconclusive [activator, full curve, poor fit]
20 | O=c1c(=O)n2c(nn1Cc1ccc(F)cc1)sc1ccccc12 | inactive
21 | c1ccc(NC(c2ccccc2)c2ccncc2)cc1 (stereo unspecified) | inactive
22 | O=[N+]([O-])c1ccc(C=NNc2ccccc2)cc1 | inconclusive [activator, single point]
23 | CC(C)COC(=O)C(C#N)c1nc2ccccc2nc1N1CCN(Cc2ccccc2)CC1 (stereo unspecified) | inconclusive [activator, partial curve, poor fit]
24 | Cc1cccc(NC(=O)COc2ccc(Br)cc2/C=N/O)c1 | inconclusive [activator, single point]

Row | SMILES | Potency
25 | Cc1cccc(NC(=O)Cc2nc(-c3c[nH]c(C(=O)N4CCCC4)c3)cs2)c1 | inactive
26 | CC1(C)OC2OC(C3COC(=O)O3)C(OC(=O)c3ccccc3)C2O1 (stereo unspecified) | inactive
27 | COc1cccc(-c2cc(=O)c3cc(NC(C)=O)ccc3[nH]2)c1 | active: 23.1 µM
28 | CC(Sc1nnnn1-c1ccccc1)C(=O)Nc1ccccc1-c1ccccc1 (stereo unspecified) | inconclusive [activator, partial curve, poor fit]
29 | Oc1c(Br)cc(Br)c(/C=N/n2c(-c3ccccc3)n[nH]c2=S)c1Br | inconclusive [activator, single point]
30 | O=C(CCc1ccccc1)N1CCN(Cc2ccc(F)cc2Cl)CC1 | inconclusive [activator, single point]
31 | CCN(CC(=O)NC1CCS(=O)(=O)C1)C(=O)COc1ccccc1-c1ccccc1 (stereo unspecified) | inconclusive [activator, partial curve, poor fit]
32 | C/C(=N/OC(=O)c1ccc(C)cc1)c1ccc(N2C(=O)C3CCCCC3C2=O)cc1 (stereo unspecified) | inactive
33 | Cc1ccc2nc(NCCNC(=O)c3ccccc3)c(C#N)cc2c1 | inconclusive [activator, partial curve, poor fit]
34 | CC[C@@H](C)[C@H](CN[C@H](CNC)C(C)C)NC[C@@H](C)c1ccc(CC(C)C)cc1 | inconclusive [activator, single point]
35 | CC(C)(C)C(=O)O/N=C(\N)Cc1ccc(-c2csnn2)cc1 | inactive
36 | O=C(CSc1nnc(CN2CCCC2)n1-c1ccccc1)c1ccc2c(c1)OCO2 | inconclusive [activator, partial curve, poor fit]
37 | CCN1CCN(CCCNC(=O)c2cc3cc4ccc(OC)cc4nc3o2)CC1 | inconclusive [activator, single point]
38 | CC[C@H]1C(Nc2ccccc2)C[C@@H]2CCN3C(=O)CC[C@H]1[C@H]23 (stereo partly specified) | inactive
39 | CCOc1ccc2nc(SCC(=O)c3ccc(O)cc3O)sc2c1 | inconclusive [activator, partial curve]
40 | COc1ccc(-c2csc(N(Cc3ccccc3)C(=O)COc3ccc(Cl)cc3)n2)cc1 | inactive
41 | O=C(N/N=C/c1ccc(N2CCOCC2)o1)c1cccc(C(F)(F)F)c1 | active: 20.6 µM
42 | O=C(Nc1ccccc1C(=O)NC1CC1)c1ccc([N+](=O)[O-])o1 | active: 16.4 µM
43 | Oc1ccc(Br)cc1C=Nc1ccc2c3c(cccc13)CC2 | inconclusive [activator, partial curve, poor fit]
44 | NC(=O)Cc1nc2scc(-c3ccccc3)c2c(=O)[nH]1 | inconclusive [activator, single point]
45 | Cc1coc2c(O)cc3c(c12)OC1(N2CCCCC2)C(=O)NCCCC31 (stereo unspecified) | active: 18.4 µM
46 | Nc1ccc2nc3c(=O)n(CCc4ccccc4)c(=O)[nH]c3nc2c1 | inconclusive [activator, partial curve, poor fit]
47 | O=C1C=C(O)c2[nH]c(=O)ccc2C1=O | inactive
48 | O=C(CCCn1c(=S)[nH]c2cc3c(cc2c1=O)OCO3)N1CCN(c2ccccc2F)CC1 | inactive

Row | SMILES | Potency
49 | COC(=O)c1[nH]c2ccc(Br)cc2c1NC(=O)CN1CCCc2ccccc21 | inconclusive [activator, single point]
50 | CN1C[C@@H]2[C@@H]3C(=O)N(Cc4ccccc4)C(=O)[C@@H]3[C@](Cc3ccccc3)(C1=O)N2C(=O)c1ccc(Cl)c(Cl)c1 | inconclusive [activator, full curve, poor fit]
51 | CCOC(=O)C1=C(C)N=c2s/c(=C/c3ccc(OCC(=O)O)c(OC)c3)c(=O)n2C1c1ccc(Cl)cc1 (stereo unspecified) | inconclusive [activator, single point]
52 | CCOc1ccc(NC(=S)NC(=O)c2c(Br)cnn2C)c([N+](=O)[O-])c1 | inconclusive [activator, partial curve]
53 | O=C(Nc1ccncc1)c1ccc(NS(=O)(=O)c2cccc(F)c2)cc1 | inconclusive [activator, full curve, poor fit]
54 | CCn1c(SCC(=O)N2CCCC2)nnc1-c1ccc(S(=O)(=O)N2CCCCCC2)cc1 | inconclusive [activator, partial curve, poor fit]
55 | CCSc1nnc(NC(=O)CCC2CCCCC2)s1 | inconclusive [activator, single point]
56 | COc1cc(OC)c(N(C)S(=O)(=O)c2cccc(C(=O)OCC(=O)N3CCOCC3)c2)cc1Cl | inactive
57 | Cc1noc(C)c1S(=O)(=O)N1CCC(C(=O)O)CC1 | inconclusive [activator, partial curve]
58 | O=C(Cc1ccsc1)N1CCN(S(=O)(=O)c2cc(C(F)(F)F)cc(C(F)(F)F)c2)CC1 | inconclusive [activator, partial curve, poor fit]
59 | O=c1[nH]c2ccccc2c2nc3ccccn3c12 | inconclusive [activator, single point]
60 | C/C(=N\NC(=O)c1cccc(F)c1)c1ccc(Br)s1 | inconclusive [activator, partial curve]
61 | CC(=O)Nc1ccc(NC(=O)CSc2ccc3nnc(-c4ccccn4)n3n2)cc1 | inactive
62 | CCCC[C@H]1COCCS(=O)(=O)N1Cc1ccc(Br)cc1 | inactive
63 | COc1ccc(N2CCN(S(=O)(=O)CCNC(=O)C3CC(=O)N(c4ccccc4)C3)CC2)cc1 (stereo unspecified) | inactive
64 | Cc1nc2cc(NC(=O)NCc3ccco3)ccc2n1C | inactive
65 | CC1=CC2=NC(=O)/C(=C\c3cccn3CCOc3cc(C)ccc3C)C(=N)N2O1 | inconclusive [activator, single point]
66 | CSc1snnc1-c1ccccc1 | inconclusive [activator, single point]
67 | O=C(CN1CCCC1)Nc1ccc2c(c1)CCC2 | inactive
68 | O=C(Nc1ccc(Cc2ccncc2)cc1)c1ccc(Br)o1 | inactive
69 | CCOc1ccc(Oc2ccc(S(=O)(=O)N3CCOCC3)cc2NC(=O)CCNC(C)=O)cc1 | inactive
70 | S=C(NCCCN1CCOCC1)Nc1ccc(Cl)c(Cl)c1 | inconclusive [activator, partial curve, poor fit]
71 | O=C(NC(=S)Nc1ccc([N+](=O)[O-])cc1O)C1CCCCC1 | inconclusive [activator, partial curve, poor fit]
